The supplement of paper PMC4604168 (melanoma cell lines)
Some of the results follow. Most values come without repeats; read them as rough.

System: RPMI7951
Experiment: cell count relative to DMSO control; melanoma cells; higher = more viable cells
Conditions: library dose: low library concentration; 72 h
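Also: cell number obtained by counting DAPI-stained nuclei in high-throughput microscope images with image analysis software, screen run in 1,536-well plates.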

SMILES	cell count [%]
CC(=O)c1c(C)c2cnc(Nc3ccc(N4CCNCC4)cn3)nc2n(C2CCCC2)c1=O [palbociclib] + CO[C@@H]1[C@H](N(C)C(=O)c2ccccc2)C[C@H]2O[C@]1(C)n1c3ccccc3c3c4c(c5c6ccccc6n2c5c31)C(=O)NC4 [Midostaurin] (first compound 0.04 µM, partner dose 0.08 µM)	56.2
Nc1ncn([C@H]2C[C@H](O)[C@@H](CO)O2)c(=O)n1 [decitabine] + CO[C@@H]1[C@H](N(C)C(=O)c2ccccc2)C[C@H]2O[C@]1(C)n1c3ccccc3c3c4c(c5c6ccccc6n2c5c31)C(=O)NC4 [Midostaurin] (first compound 0.1 µM, partner dose 0.08 µM)	55.6
CC(=O)c1c(C)c2cnc(Nc3ccc(N4CCNCC4)cn3)nc2n(C2CCCC2)c1=O [palbociclib] + O=C(O)C(=O)Nc1sc2c(c1C(=O)O)CCNC2 [TCS401] (first compound 0.04 µM, partner dose 1.66667 µM)	74.1
Nc1nc(F)nc2c1ncn2[C@@H]1O[C@H](CO)[C@@H](O)[C@@H]1O [fludarabine] + CN(C)S(=O)(=O)c1ccc2c(c1)/C(=C/c1cc3c([nH]1)CCCC3)C(=O)N2 [SU6656] (first compound 0.2 µM, partner dose 0.4 µM)	121
Nc1nc(F)nc2c1ncn2[C@@H]1O[C@H](CO)[C@@H](O)[C@@H]1O [fludarabine] + Cc1ccc(NC(=O)c2cccc(N(C)C)c2)cc1NC(=O)c1ccc(O)cc1 [ZM336372] (first compound 0.2 µM, partner dose 2 µM)	75.8
